{"source": "paper PMC12820563", "about": "“FoxP3 forms a head-to-head dimer in vivo and stabilizes its multimerization on adjacent microsatellites”", "note": "Some of the results follow.", "data": [{"target": "T1, MBP-FoxP1dN (Mus musculus, UniProt P58462 326-579)", "T1 sequence": "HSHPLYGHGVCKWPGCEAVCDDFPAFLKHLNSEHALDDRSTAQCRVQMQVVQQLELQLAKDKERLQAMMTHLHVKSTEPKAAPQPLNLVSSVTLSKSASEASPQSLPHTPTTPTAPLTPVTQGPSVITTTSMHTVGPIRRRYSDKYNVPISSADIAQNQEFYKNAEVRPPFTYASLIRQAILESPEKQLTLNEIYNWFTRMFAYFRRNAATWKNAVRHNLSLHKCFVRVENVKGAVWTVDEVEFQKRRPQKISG", "assay": "PD-seq (MBP pull-down with sequencing); 20 mM Tris-HCl pH 7.5, 100 mM NaCl, 1.5 mM MgCl2, 0.4 uM protein, 0.1 uM dsDNA library, 30 min, room temperature, amylose pull-down; high values mean tight binding", "conditions": "protein: recombinant; tags: His6-MBP; chain copies: 2; dsDNA, one strand shown", "how_it_was_run": "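Amylose resin was used to capture complexes formed during 30 min at room temperature in Tris pH 7.5 buffer with NaCl and MgCl2 between 0.4 µM His6-MBP-tagged mouse FoxP3 or FoxP1 fragment lacking the N-terminus, expressed in E. coli, and 0.1 µM Klenow-filled double-stranded degenerate DNA library. After three washes, the DNA was released with proteinase K, barcoded by PCR and sequenced on Illumina. Binding is pooled-replicate reads-per-million enrichment, pull-down over input.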", "values": [{"sequence": "GATGATTGTTCTCCCAGCTGATGAATTAAGAATCTCGAGTAAACAAATTTTCCTAATCTTTCTGTTCAAGCGCCATCTAC", "binding signal": "0.823 RPM ratio (pull-down/input)"}, {"sequence": "GATGATTGTTCTCCCAGCTGATGAATTGGCCTTTTCGAGTAAACAAATTTTCCTAATCTTTCTGTTCAAGCGCCATCTAC", "binding signal": "0.882 RPM ratio (pull-down/input)"}, {"sequence": "GATGATTGTTCTCCCAGCTGATGAATTGACCTCTTCGAGTAAACAAATTTTCCTAATCTTTCTGTTCAAGCGCCATCTAC", "binding signal": "0.884 RPM ratio (pull-down/input)"}, {"sequence": "GATGATTGTTCTCCCAGCTGATGAATTCAGTTCCTCGAGTAAACAAATTTTCCTAATCTTTCTGTTCAAGCGCCATCTAC", "binding signal": "0.82 RPM ratio (pull-down/input)"}, {"sequence": "GATGATTGTTCTCCCAGCTGATGAATTGAGCACCTCGAGTAAACAAATTTTCCTAATCTTTCTGTTCAAGCGCCATCTAC", "binding signal": "0.782 RPM ratio (pull-down/input)"}, {"sequence": "GATGATTGTTCTCCCAGCTGATGAATTAAAGGAATCGAGTAAACAAATTTTCCTAATCTTTCTGTTCAAGCGCCATCTAC", "binding signal": "0.934 RPM ratio (pull-down/input)"}, {"sequence": "GATGATTGTTCTCCCAGCTGATGAATTGCAGGCTTCGAGTAAACAAATTTTCCTAATCTTTCTGTTCAAGCGCCATCTAC", "binding signal": "0.964 RPM ratio (pull-down/input)"}, {"sequence": "GATGATTGTTCTCCCAGCTGATGAATTGGAGCTCTCGAGTAAACAAATTTTCCTAATCTTTCTGTTCAAGCGCCATCTAC", "binding signal": "0.773 RPM ratio (pull-down/input)"}, {"sequence": "GATGATTGTTCTCCCAGCTGATGAATTATACATTTCGAGTAAACAAATTTTCCTAATCTTTCTGTTCAAGCGCCATCTAC", "binding signal": "1.27 RPM ratio (pull-down/input)"}, {"sequence": "GATGATTGTTCTCCCAGCTGATGAATTGGGGAGCTCGAGTAAACAAATTTTCCTAATCTTTCTGTTCAAGCGCCATCTAC", "binding signal": "0.737 RPM ratio (pull-down/input)"}, {"sequence": "GATGATTGTTCTCCCAGCTGATGAATTTAAAATGTCGAGTAAACAAATTTTCCTAATCTTTCTGTTCAAGCGCCATCTAC", "binding signal": "0.928 RPM ratio (pull-down/input)"}, {"sequence": "GATGATTGTTCTCCCAGCTGATGAATTGTAACACTCGAGTAAACAAATTTTCCTAATCTTTCTGTTCAAGCGCCATCTAC", "binding signal": "1.17 RPM ratio (pull-down/input)"}, {"sequence": "GATGATTGTTCTCCCAGCTGATGAATTTTAGGAATCGAGTAAACAAATTTTCCTAATCTTTCTGTTCAAGCGCCATCTAC", "binding signal": "0.892 RPM ratio (pull-down/input)"}, {"sequence": "GATGATTGTTCTCCCAGCTGATGAATTTACGATCTCGAGTAAACAAATTTTCCTAATCTTTCTGTTCAAGCGCCATCTAC", "binding signal": "1.15 RPM ratio (pull-down/input)"}, {"sequence": "GATGATTGTTCTCCCAGCTGATGAATTCTGGTATTCGAGTAAACAAATTTTCCTAATCTTTCTGTTCAAGCGCCATCTAC", "binding signal": "0.915 RPM ratio (pull-down/input)"}, {"sequence": "GATGATTGTTCTCCCAGCTGATGAATTGACTCCATCGAGTAAACAAATTTTCCTAATCTTTCTGTTCAAGCGCCATCTAC", "binding signal": "1.06 RPM ratio (pull-down/input)"}, {"sequence": "GATGATTGTTCTCCCAGCTGATGAATTAACTGTCTCGAGTAAACAAATTTTCCTAATCTTTCTGTTCAAGCGCCATCTAC", "binding signal": "0.829 RPM ratio (pull-down/input)"}, {"sequence": "GATGATTGTTCTCCCAGCTGATGAATTCAGCTCGTCGAGTAAACAAATTTTCCTAATCTTTCTGTTCAAGCGCCATCTAC", "binding signal": "0.747 RPM ratio (pull-down/input)"}, {"sequence": "GATGATTGTTCTCCCAGCTGATGAATTAAGAGTATCGAGTAAACAAATTTTCCTAATCTTTCTGTTCAAGCGCCATCTAC", "binding signal": "1.06 RPM ratio (pull-down/input)"}, {"sequence": "GATGATTGTTCTCCCAGCTGATGAATTGACCCTCTCGAGTAAACAAATTTTCCTAATCTTTCTGTTCAAGCGCCATCTAC", "binding signal": "0.846 RPM ratio (pull-down/input)"}, {"sequence": "GATGATTGTTCTCCCAGCTGATGAATTGCCAGTTTCGAGTAAACAAATTTTCCTAATCTTTCTGTTCAAGCGCCATCTAC", "binding signal": "0.967 RPM ratio (pull-down/input)"}, {"sequence": "GATGATTGTTCTCCCAGCTGATGAATTATGGCGATCGAGTAAACAAATTTTCCTAATCTTTCTGTTCAAGCGCCATCTAC", "binding signal": "0.99 RPM ratio (pull-down/input)"}, {"sequence": "GATGATTGTTCTCCCAGCTGATGAATTATGAATATCGAGTAAACAAATTTTCCTAATCTTTCTGTTCAAGCGCCATCTAC", "binding signal": "1.07 RPM ratio (pull-down/input)"}, {"sequence": "GATGATTGTTCTCCCAGCTGATGAATTAGACTACTCGAGTAAACAAATTTTCCTAATCTTTCTGTTCAAGCGCCATCTAC", "binding signal": "0.82 RPM ratio (pull-down/input)"}, {"sequence": "GATGATTGTTCTCCCAGCTGATGAATTTGAGCTATCGAGTAAACAAATTTTCCTAATCTTTCTGTTCAAGCGCCATCTAC", "binding signal": "0.88 RPM ratio (pull-down/input)"}, {"sequence": "GATGATTGTTCTCCCAGCTGATGAATTTAGCCTATCGAGTAAACAAATTTTCCTAATCTTTCTGTTCAAGCGCCATCTAC", "binding signal": "0.952 RPM ratio (pull-down/input)"}, {"sequence": "GATGATTGTTCTCCCAGCTGATGAATTGCGATGCTCGAGTAAACAAATTTTCCTAATCTTTCTGTTCAAGCGCCATCTAC", "binding signal": "1.2 RPM ratio (pull-down/input)"}, {"sequence": "GATGATTGTTCTCCCAGCTGATGAATTCTGGGCCTCGAGTAAACAAATTTTCCTAATCTTTCTGTTCAAGCGCCATCTAC", "binding signal": "0.745 RPM ratio (pull-down/input)"}, {"sequence": "GATGATTGTTCTCCCAGCTGATGAATTTACCGGATCGAGTAAACAAATTTTCCTAATCTTTCTGTTCAAGCGCCATCTAC", "binding signal": "1.02 RPM ratio (pull-down/input)"}, {"sequence": "GATGATTGTTCTCCCAGCTGATGAATTAGTTGGCTCGAGTAAACAAATTTTCCTAATCTTTCTGTTCAAGCGCCATCTAC", "binding signal": "0.862 RPM ratio (pull-down/input)"}, {"sequence": "GATGATTGTTCTCCCAGCTGATGAATTGCCACCGTCGAGTAAACAAATTTTCCTAATCTTTCTGTTCAAGCGCCATCTAC", "binding signal": "0.977 RPM ratio (pull-down/input)"}, {"sequence": "GATGATTGTTCTCCCAGCTGATGAATTTGGTGATTCGAGTAAACAAATTTTCCTAATCTTTCTGTTCAAGCGCCATCTAC", "binding signal": "0.983 RPM ratio (pull-down/input)"}, {"sequence": "GATGATTGTTCTCCCAGCTGATGAATTATACGAGTCGAGTAAACAAATTTTCCTAATCTTTCTGTTCAAGCGCCATCTAC", "binding signal": "0.894 RPM ratio (pull-down/input)"}, {"sequence": "GATGATTGTTCTCCCAGCTGATGAATTATGCGGATCGAGTAAACAAATTTTCCTAATCTTTCTGTTCAAGCGCCATCTAC", "binding signal": "0.98 RPM ratio (pull-down/input)"}, {"sequence": "GATGATTGTTCTCCCAGCTGATGAATTTGCCGCGTCGAGTAAACAAATTTTCCTAATCTTTCTGTTCAAGCGCCATCTAC", "binding signal": "0.902 RPM ratio (pull-down/input)"}, {"sequence": "GATGATTGTTCTCCCAGCTGATGAATTCTCTAGGTCGAGTAAACAAATTTTCCTAATCTTTCTGTTCAAGCGCCATCTAC", "binding signal": "0.795 RPM ratio (pull-down/input)"}, {"sequence": "GATGATTGTTCTCCCAGCTGATGAATTATGTACCTCGAGTAAACAAATTTTCCTAATCTTTCTGTTCAAGCGCCATCTAC", "binding signal": "1.22 RPM ratio (pull-down/input)"}, {"sequence": "GATGATTGTTCTCCCAGCTGATGAATTGACCATGTCGAGTAAACAAATTTTCCTAATCTTTCTGTTCAAGCGCCATCTAC", "binding signal": "0.875 RPM ratio (pull-down/input)"}, {"sequence": "GATGATTGTTCTCCCAGCTGATGAATTTTTTGTATCGAGTAAACAAATTTTCCTAATCTTTCTGTTCAAGCGCCATCTAC", "binding signal": "1.26 RPM ratio (pull-down/input)"}, {"sequence": "GATGATTGTTCTCCCAGCTGATGAATTAGAAGATTCGAGTAAACAAATTTTCCTAATCTTTCTGTTCAAGCGCCATCTAC", "binding signal": "0.926 RPM ratio (pull-down/input)"}]}]}
